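Each compound was tested at five concentrations against cells in 96-well plates for 48 hours. GI50 is the concentration that inhibits growth by half.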 The source made the active and inactive calls. Cut-off read from the data, not from the text of the source: active = GI50 up to about 1.1 µM and inactive = higher.
These molecules were tested on NCI-H322M (assay: inhibition of tumour cell growth, NCI panel, 48 h).
In the case of `CNC(=O)OCc1nc(SSc2nc(COC(=O)NC)c(COC(=O)NC)n2C)n(C)c1COC(=O)NC`, the GI50 is reported as inactive: > 100 µM.
`CN(C)c1ccc(/C=c2\c3ccccc3n3c2cc(-c2ccccc2)[n+]3C)cc1` was tested, and the GI50 was active: 0.473 µM.
`O=C(CCc1ccccc1)NCCc1ccc(O)c(O)c1` was tested, and the GI50 was inactive: > 76.2 µM.
For `CC(=O)Nc1ccc(Cc2ccc3nc(O)cc(C)c3c2)cc1`, the GI50 was inactive: 48 µM.
`CC(=O)Oc1cc2c(cc1OCC(F)(F)F)[C@H]1CC[C@]3(C)[C@@H](OC(C)=O)CC[C@H]3[C@@H]1CC2=O` was tested, and the GI50 was inactive: 16.7 µM.
For `COc1cc(C2c3cc4c(cc3OC(NNC(N)=O)C2C)OCO4)cc(OC)c1OC` (centres undefined), the GI50 was active: 0.139 µM.
`COc1cc(C2C3=C(COC3=O)OC(C)(C)Oc3cc4c(cc32)OCO4)cc(OC)c1OC` (centres undefined) was tested, and the GI50 was active: 0.486 µM.
With `CCOP(=O)(OCC)C(Cc1ccccc1)N=C(c1ccccc1)c1ccccc1` (centres undefined) the GI50 was inactive: 14.5 µM.
With `COc1ccc(C2C(C)C(=O)C(C)C(c3ccc(OC)cc3)N2N=O)cc1` (centres undefined) the GI50 was inactive: 684 µM.
`COc1ccc(/N=C\c2ccc(N(CCC#N)CCC#N)cc2)cc1` was tested, and the GI50 was inactive: > 75.5 µM.
`CC(=O)N(C)C(C(=O)N1CC(C)CC1C(=O)N(C)C1C(=O)NC(CC(C)C)C(=O)N2CC(C)CC2C(=O)NC(CC(C)C)C(=O)N(C)C(C(C)C)C(=O)N2CCCC2C(=O)N(C)C(CC(C)C)C(=O)NCC(=O)OC1C)C(C)C` (centres undefined) was tested, and the GI50 was inactive: > 100 µM.
For `CCOC(=O)/C(C(=O)Nc1cccc(C(F)(F)F)c1)=C(/N)N1CCCC1`, the GI50 was inactive: 79.3 µM.
`COc1ccc(Cn2c3c(cc(OS(=O)(=O)C(F)(F)F)c2=O)Cc2ccccc2-3)cc1` was tested, and the GI50 was inactive: 15.5 µM.
In the case of `COc1c(-c2nc3ccc(N4CCN(C)CC4)nc3[nH]2)cc(OC)c2[nH]c(CO)nc12`, the GI50 is reported as inactive: 48.3 µM.
In the case of `Cc1ccc2c(c1)C(=O)C1(C2)Cc2c(C)cccc2C1=O` (centres undefined), the GI50 is reported as inactive: > 100 µM.
For `CCN(CC)C(=O)C1=C(C)NC(C)=C(C(=O)N(CC)CC)C1`, the GI50 was inactive: > 100 µM.
For `OCCCNc1ccnc2cc(Cl)ccc12`, the GI50 was inactive: > 100 µM.
With `O=[N+]([O-])C(=C/C1CCCCC1)/C(=C\C1CCCCC1)[N+](=O)[O-]` the GI50 was inactive: 16.3 µM.
In the case of `O=S(=O)(O)c1ccc(Nc2ccnc3ccccc23)cc1`, the GI50 is reported as inactive: > 100 µM.
`c1ccc2c(c1)/C(=N\NC1=NCCN1)c1nc3ccccc3nc1-2` was tested, and the GI50 was inactive: 3.03 µM.
With `C[C@]12CC(c3ccccc3O1)C(C(=O)NC13CC4CC(CC(C4)C1)C3)C(=O)N2` (some centres undefined) the GI50 was inactive: 18.7 µM.
`Cc1cc(C)c(C(=O)OC(c2ccccc2)C(c2ccccc2)N2CCOCC2)c(C)c1` (centres undefined) was tested, and the GI50 was inactive: > 100 µM.
With `C#CCCCCC#CC1CCCC1C1=CC(=O)c2ccccc21` (centres undefined) the GI50 was inactive: 13.5 µM.
In the case of `O=C1/C(=C/c2cccs2)NC(=S)N1CN1CCCCC1`, the GI50 is reported as inactive: > 100 µM.
For `C/N=C(\SC)N(C)c1nc(=[N+](C)C)ss1.[O-][Cl+3]([O-])([O-])[O-]`, the GI50 was inactive: > 100 µM.
In the case of `Cc1ccc(Cl)c2[nH]c(-c3ccccc3)cc(=O)c12`, the GI50 is reported as inactive: 28.7 µM.
For `C1=CC=C2NCCOCC/N=C3/C=CC=CC=C3NCCOCC/N=C\2C=C1`, the GI50 was inactive: 74.3 µM.
`CCOC(=O)c1c2ccc(/C=C/c3ccccn3)ccc-2c(C(=O)OCC)c1N` was tested, and the GI50 was active: 0.562 µM.
In the case of `CC1(O)/C(=N/O)CC2CC1C2(C)C` (centres undefined), the GI50 is reported as inactive: > 100 µM.
In the case of `O=C1/C(=C/c2ccccc2)CN(C(=O)OCc2ccccc2)C/C1=C\c1ccccc1`, the GI50 is reported as inactive: > 31.6 µM.
For `N=C(N)NS(=O)(=O)c1ccc(Nc2c3ccccc3nc3ccc(C(=O)Nc4ccc(S(N)(=O)=O)cc4)cc23)cc1`, the GI50 was inactive: > 100 µM.
`NCCSc1cc(O)c2c(c1N)C(=O)c1ccccc1C2=O` was tested, and the GI50 was inactive: > 100 µM.
`O=C(/C=C(\S/C=C(/c1ccccc1)N1CCn2c(C(=O)c3ccccc3)c(C(=O)c3ccccc3)c(C(=O)c3ccccc3)c21)C(=O)c1ccccc1)c1ccccc1` was tested, and the GI50 was inactive: > 10 µM.
In the case of `COc1ccc(N2C(=O)/C(=C(\C)c3cc4ccccc4oc3=O)N=C2c2cc([N+](=O)[O-])ccc2Cl)cc1`, the GI50 is reported as inactive: > 100 µM.
With `CCOc1ncn(-c2ccc(NC(=S)NC34CC5CC(CC(C5)C3)C4)cc2)n1` the GI50 was inactive: > 100 µM.
For `C/N=C(\N)N/N=C(\C)c1ccc2oc3ccc(/C(C)=N/N/C(N)=N/C)cc3c2c1`, the GI50 was inactive: 2.42 µM.
`Nc1nc(Cl)cc(NCC2(CO)CC(O)C2)n1` (centres undefined) was tested, and the GI50 was inactive: > 100 µM.
For `Nn1c(=O)n(Cc2ccccc2)n(-c2ccccc2)c1=O`, the GI50 was inactive: > 100 µM.
`O[C@@H]1C[C@@H]2N[C@@](O)(C[C@@H]2O)[C@H]1O` was tested, and the GI50 was inactive: > 100 µM.
In the case of `O=C(/C=C1/NC(=O)CS1)Nc1ccccc1`, the GI50 is reported as inactive: 36.1 µM.
In the case of `Cc1cnc(/C=N\NC(N)=S)c2cccc(N)c12`, the GI50 is reported as active: 0.604 µM.
With `N#CCCN(CCC#N)c1ccc(/C=C(/NC(=O)c2cc([N+](=O)[O-])ccc2Cl)C(=O)N=[N+]=[N-])cc1` the GI50 was inactive: > 100 µM.
`CCCCOP(=O)(OCCCC)C(NS(=O)(=O)c1ccccc1)(C(=O)OCC)C(F)(F)F` (centres undefined) was tested, and the GI50 was inactive: 49 µM.
For `Cc1ccc([N+](=O)[O-])c2c(NCC(O)CO)ccnc12` (centres undefined), the GI50 was inactive: 24.5 µM.
For `N#CC(C#N)=C1SC(=N\c2ccccc2)/C(=N/c2ccccc2)N1c1ccccc1`, the GI50 was inactive: 53.8 µM.
With `CC(=O)c1cccc2c1CC1(C2)Cc2ccc3c(c2C1=O)CCC3` (centres undefined) the GI50 was inactive: > 100 µM.
For `CCCCOP(C)(=O)C(NC(=O)OCC)(C(F)(F)F)C(F)(F)F` (centres undefined), the GI50 was inactive: > 100 µM.
With `COP(=O)(OC)C12CCOCCN1c1ccccc1C2=O` (centres undefined) the GI50 was inactive: > 100 µM.
`CCc1n[nH]c(=O)n1CCO` was tested, and the GI50 was inactive: > 100 µM.
With `COC(=O)[C@]1(c2ccc(N(C)C)cc2OC)C[C@@H]2CCCN(CCc3c1[nH]c1ccccc31)C2` the GI50 was inactive: 29.4 µM.
For `Cn1c(=O)c2nc(N3CCOCC3)cnc2n(C)c1=O`, the GI50 was inactive: > 100 µM.
`O=C(Nc1cccc2ccccc12)Nn1cnnc1` was tested, and the GI50 was inactive: > 100 µM.
`O=c1c(Cl)c(Cl)cnn1CCc1ccncc1` was tested, and the GI50 was inactive: 17.3 µM.
With `Cc1ccc(C(=O)C2=CN=C3C(=O)N(c4ccccc4)N(C)C3(C)C2=N)cc1` (centres undefined) the GI50 was inactive: > 100 µM.
`CC1=[N+]([O-])c2ccccc2C(=O)C1=O` was tested, and the GI50 was inactive: > 100 µM.
`O=C1c2c(O)cccc2C(C(=O)CCCC(=O)C2c3cccc(O)c3C(=O)c3c(O)cccc32)c2cccc(O)c21` was tested, and the GI50 was active: 0.935 µM.
`N#CC(/C(=N/NC(N)=S)C(=O)Nc1cccc(Cl)c1)c1ccccc1` (centres undefined) was tested, and the GI50 was inactive: > 100 µM.
`NS(=O)(=O)c1nnc(NS(=O)(=O)c2ccc(Cl)cc2)s1` was tested, and the GI50 was inactive: > 100 µM.
For `O=C(CCc1nnc2s/c(=C\c3ccccc3)c(=O)n12)Nc1cc(Cl)ccc1Cl`, the GI50 was inactive: > 100 µM.
`CC1(C(=O)NCCN(CCNC(=O)C2(C)CC3(C)CC(C)(C2)C(=O)NC3=O)CCNC(=O)C2(C)CC3(C)CC(C)(C2)C(=O)NC3=O)CC2(C)CC(C)(C1)C(=O)NC2=O` (centres undefined) was tested, and the GI50 was inactive: > 100 µM.
`CCOC(C[C@H](O[Si](C)(C)C(C)(C)C)[C@H]1COC(=S)S1)OCC` was tested, and the GI50 was inactive: > 100 µM.
In the case of `COC(=O)[C@]12CSC[C@H]1C[C@H](c1ccccc1OC)N2`, the GI50 is reported as inactive: > 100 µM.
With `S=c1sc2c(Cl)nc(Cl)nc2n1-c1ccccc1` the GI50 was inactive: 28.8 µM.
With `COC(=O)/C(C#N)=C1\CCc2ccccc21` the GI50 was inactive: > 100 µM.
In the case of `Nc1cc(N2CCCC2)nc(=O)n1Cc1ccccc1`, the GI50 is reported as inactive: > 100 µM.
For `NC(=S)N/N=C1\c2ccccc2CCC1CCC1(O)CCc2ccccc2C1=O` (centres undefined), the GI50 was inactive: 41.6 µM.
In the case of `CSc1nc2c(ncn2C2OCC(O)C(O)C2O)c(=O)[nH]1` (centres undefined), the GI50 is reported as inactive: > 100 µM.
For `Nc1c([N+](=O)[O-])cc2c3c(cccc13)CC2`, the GI50 was inactive: 53.8 µM.
For `CCOC(=O)NC(=O)c1cn(CCOC(=O)NCCCCCCNC(=O)OCCn2cc(C(=O)NC(=O)OCC)c(=O)[nH]c2=O)c(=O)[nH]c1=O`, the GI50 was inactive: > 100 µM.
In the case of `Cc1ccc(C(=C2Sc3ccccc3S2)C(=C2Sc3ccccc3S2)c2ccc(C)s2)s1`, the GI50 is reported as inactive: > 100 µM.
`Cn1c(=O)c2c(nc3n(CCCCl)c(=O)ccn23)n(C)c1=O` was tested, and the GI50 was inactive: > 100 µM.
In the case of `CCC1CC2CN3CCc4c([nH]c5c(-c6c(OC)ccc7c8c([nH]c67)[C@]6(C(=O)OC)CC7CC(CC)C6N(CC8)C7)c(O)ccc45)[C@](C(=O)OC)(C2)C13` (some centres undefined), the GI50 is reported as inactive: 16.5 µM.
In the case of `C/C(=N\Nc1nc2ccccc2[nH]1)c1ccncn1`, the GI50 is reported as active: 0.184 µM.
`O/N=C/C1c2ccccc2-c2ccccc21` was tested, and the GI50 was inactive: 18.1 µM.
With `COc1c2c(cc3occ(-c4ccc(CC=C(C)C)cc4)c(=O)c13)OC(C)(C)C=C2` the GI50 was inactive: > 100 µM.
With `CNc1nnc(CNc2ccc(-c3nnc(NC)n3N)cc2)n1N` the GI50 was inactive: > 100 µM.
In the case of `Cc1n[nH]c(=O)n1N1C(=O)CCCC1=O`, the GI50 is reported as inactive: > 100 µM.
`CSC(=S)Nc1cc(C)ccn1` was tested, and the GI50 was inactive: > 100 µM.
`CCOC(=O)C1(Cc2ccccc2)Cc2cc3c(cc2C1)CCC3` was tested, and the GI50 was inactive: 44.8 µM.
`COc1ccc(C(=O)/C=C/c2ccc(OCC(=N)N)cc2)cc1OC` was tested, and the GI50 was inactive: 2.9 µM.
For `COC(=O)C(=O)C(C(=O)C=C(C)C)C(=O)C(=O)Nc1ccc(C)cc1C` (centres undefined), the GI50 was inactive: > 100 µM.
`C[C@]12CC[C@@H]3c4cc(Br)c(O)c(Br)c4CC[C@H]3[C@@H]1CC(Br)C2=O` (some centres undefined) was tested, and the GI50 was inactive: 13.4 µM.
With `COc1ccc(C(C#N)NC23CC4CC(CC(C4)C2)C3)cc1` (centres undefined) the GI50 was inactive: > 100 µM.
In the case of `CC(=O)OCC1OC(OC2CC3C(C)(C)C(O)CC[C@]3(C)C3CCC45CC4(CCC5[C@@H](C)CC(O)C(O)C(C)(C)O)[C@]23C)C(O)C(O)C1O` (some centres undefined), the GI50 is reported as inactive: > 10 µM.
`O=C(OCc1ccccc1)C(Cc1ccccc1)N(Cc1ccccc1)Cc1ccccc1` (centres undefined) was tested, and the GI50 was inactive: > 100 µM.
For `O=C(CCc1cccc(O)c1)NCCc1ccc(O)cc1`, the GI50 was inactive: > 100 µM.
With `O=C1CCCCC/C1=C\c1ccc(F)cc1` the GI50 was inactive: > 100 µM.
In the case of `CO[C@H]1C[C@H](O[C@H]2CC[C@]3(C=O)[C@H]4CC[C@]5(C)[C@@H](C6=CC(=O)OC6)CC[C@]5(O)[C@@H]4CC[C@]3(O)C2)O[C@H](C)[C@H]1O[C@@H]1O[C@H](CO[C@@H]2O[C@H](CO)[C@@H](O)[C@H](O)[C@H]2O)[C@@H](O)[C@H](O)[C@H]1O`, the GI50 is reported as active: 0.0356 µM.
`O=[N+]([O-])c1cccc(Nc2nc(Cl)nc(Cl)n2)c1` was tested, and the GI50 was inactive: > 100 µM.
